Test results reported in the supplement of paper PMC9542798.

Columns and labels:
Test in all cases: minimum inhibitory concentration
[1] = compound: CC1(C)S[C@@H]2[C@H](NC(=O)[C@H](N)c3ccccc3)C(=O)N2[C@H]1C(=O)O [Ampicillin]
Protocol: (§1)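 Broth microdilution MIC per ISO 10932 on precoated VetMIC Lact-1 plates (tylosin, vancomycin and ampicillin plates prepared manually) against lactic acid bacteria and bifidobacteria isolates. Plates were read visually after 48 h anaerobic incubation (bifidobacteria 72 h; enterococci and staphylococci 24 h aerobic) at species-specific temperatures of 30 or 37 °C. Values prefixed with < or > are outside the tested dilution range.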

[2] = compound: CCC[C@@H]1C[C@@H](C(=O)N[C@@H]([C@H]2O[C@H](SC)[C@H](O)[C@@H](O)[C@H]2O)[C@H](C)Cl)N(C)C1 [Clindamycin]
Protocol: as §1

[3] = compound: CC[C@H]1OC(=O)[C@H](C)[C@@H](O[C@H]2C[C@@](C)(OC)[C@@H](O)[C@H](C)O2)[C@H](C)[C@@H](O[C@@H]2O[C@H](C)C[C@H](N(C)C)[C@H]2O)[C@](C)(O)C[C@@H](C)C(=O)[C@H](C)[C@@H](O)[C@]1(C)O [Erythromycin]
Protocol: as §1

[4] = compound: CN(C)[C@@H]1C(O)=C(C(N)=O)C(=O)[C@@]2(O)C(O)=C3C(=O)c4c(O)cccc4[C@@](C)(O)[C@H]3C[C@@H]12 [Tetracycline]
Protocol: as §1

[5] = compound: CNC(C)C1CCC(N)C(OC2C(N)CC(N)C(OC3OCC(C)(O)C(NC)C3O)C2O)O1 [Gentamicin]
Protocol: as §1

[6] = compound: CN[C@@H]1[C@H](O[C@H]2[C@H](O[C@H]3[C@H](O)[C@@H](O)[C@H](N=C(N)N)[C@@H](O)[C@@H]3N=C(N)N)O[C@@H](C)[C@]2(O)C=O)O[C@@H](CO)[C@H](O)[C@H]1O [Streptomycin]
Protocol: as §1

[7] = compound: CN[C@H](CC(C)C)C(=O)N[C@H]1C(=O)N[C@@H](CC(N)=O)C(=O)N[C@H]2C(=O)N[C@H]3C(=O)N[C@H](C(=O)N[C@H](C(=O)O)c4cc(O)cc(O)c4-c4cc3ccc4O)[C@H](O)c3ccc(c(Cl)c3)Oc3cc2cc(c3O[C@@H]2O[C@H](CO)[C@@H](O)[C@H](O)[C@H]2O[C@H]2C[C@](C)(N)[C@H](O)[C@H](C)O2)Oc2ccc(cc2Cl)[C@H]1O [Vancomycin]
Protocol: as §1

[8] = compound: NC[C@@H]1O[C@H](O[C@H]2[C@@H](O)[C@H](O[C@@H]3[C@@H](O)[C@H](N)C[C@H](N)[C@H]3O[C@H]3O[C@H](CN)[C@@H](O)[C@H](O)[C@H]3N)O[C@@H]2CO)[C@H](N)[C@@H](O)[C@@H]1O [Neomycin]
Protocol: as §1

[9] = compound: NC[C@H]1O[C@H](O[C@H]2[C@H](O)[C@@H](O[C@H]3O[C@H](CO)[C@@H](O)[C@H](N)[C@H]3O)[C@H](N)C[C@@H]2N)[C@H](O)[C@@H](O)[C@@H]1O [Kanamycin]
Protocol: as §1

[10] = compound: O=C(N[C@H](CO)[C@H](O)c1ccc([N+](=O)[O-])cc1)C(Cl)Cl [Chloramphenicol]
Protocol: as §1
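Note: isolates derived from commercial starter, protective, probiotic or feed-additive cultures, from fermented products, from human gut mucosa or feces, and from human milk or colostrum.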

| Test System | minimum inhibitory concentration [1] | minimum inhibitory concentration [2] | minimum inhibitory concentration [3] | minimum inhibitory concentration [4] | minimum inhibitory concentration [5] | minimum inhibitory concentration [6] | minimum inhibitory concentration [7] | minimum inhibitory concentration [8] | minimum inhibitory concentration [9] | minimum inhibitory concentration [10] |
| --- | --- | --- | --- | --- | --- | --- | --- | --- | --- | --- |
| Bifidobacterium adolescentis IM670 (strain group: human intestinal mucosa or faeces) | 0.25 µg/mL | 4 µg/mL | 0.12 µg/mL | 2 µg/mL | 64 µg/mL | 64 µg/mL | 0.5 µg/mL | 128 µg/mL | 256 µg/mL | 1 µg/mL |
| Bifidobacterium adolescentis IM761 (strain group: human intestinal mucosa or faeces) | 0.25 µg/mL | 0.06 µg/mL | 0.12 µg/mL | 1 µg/mL | 256 µg/mL | 128 µg/mL | 0.5 µg/mL | 128 µg/mL | 1020 µg/mL | 2 µg/mL |
| Lactobacillus gasseri IM873 (strain group: human milk or colostrum) | 0.5 µg/mL | 2 µg/mL | 0.12 µg/mL | 2 µg/mL | 2 µg/mL | 2 µg/mL | 1 µg/mL | 32 µg/mL | 64 µg/mL | 4 µg/mL |
| Streptococcus thermophilus IM1447 (strain group: starter cultures) | 0.25 µg/mL | < 0.03 µg/mL | 0.06 µg/mL | 0.5 µg/mL | 2 µg/mL | 8 µg/mL | < 0.25 µg/mL | 4 µg/mL | 16 µg/mL | 2 µg/mL |
| Lactococcus lactis IM1320 (strain group: non-starter strains) | 0.5 µg/mL | 0.5 µg/mL | 1 µg/mL | 0.5 µg/mL | 2 µg/mL | 16 µg/mL | 0.5 µg/mL | 8 µg/mL | 4 µg/mL | 4 µg/mL |
| Bifidobacterium sp. IM962 (strain group: human intestinal mucosa or faeces) | 2 µg/mL | 0.06 µg/mL | 0.12 µg/mL | 1 µg/mL | 16 µg/mL | 16 µg/mL | 0.5 µg/mL | 16 µg/mL | 128 µg/mL | 2 µg/mL |
| Streptococcus thermophilus IM1369 (strain group: starter cultures) | < 0.032 µg/mL | 0.12 µg/mL | 0.5 µg/mL | 1 µg/mL | 8 µg/mL | 16 µg/mL | 0.5 µg/mL | 8 µg/mL | 64 µg/mL | 2 µg/mL |
| Lactobacillus delbrueckii subsp. bulgaricus IM1404 (strain group: starter cultures) | 0.125 µg/mL | < 0.03 µg/mL | < 0.016 µg/mL | 0.5 µg/mL | < 0.5 µg/mL | 1 µg/mL | 0.5 µg/mL | < 0.5 µg/mL | 4 µg/mL | 2 µg/mL |
| Lactobacillus gasseri IM888 (strain group: human milk or colostrum) | 0.5 µg/mL | 4 µg/mL | 0.03 µg/mL | 2 µg/mL | 1 µg/mL | 2 µg/mL | 1 µg/mL | 8 µg/mL | 16 µg/mL | 4 µg/mL |
| Bifidobacterium adolescentis IM778 (strain group: human intestinal mucosa or faeces) | 0.25 µg/mL | 0.12 µg/mL | 0.25 µg/mL | 16 µg/mL | 128 µg/mL | 128 µg/mL | 0.5 µg/mL | 256 µg/mL | 512 µg/mL | 2 µg/mL |
| Lactococcus lactis IM1466 (strain group: starter cultures) | 1 µg/mL | 0.12 µg/mL | 0.25 µg/mL | 0.5 µg/mL | 4 µg/mL | 64 µg/mL | 0.5 µg/mL | 8 µg/mL | 16 µg/mL | 4 µg/mL |
| Streptococcus thermophilus IM1368 (strain group: starter cultures) | 0.063 µg/mL | 0.06 µg/mL | 0.5 µg/mL | 0.25 µg/mL | 4 µg/mL | 32 µg/mL | < 0.25 µg/mL | 8 µg/mL | 64 µg/mL | 2 µg/mL |
| Lactobacillus delbrueckii IM1112 (strain group: non-starter strains) | 0.5 µg/mL | 0.06 µg/mL | 0.06 µg/mL | 1 µg/mL | 2 µg/mL | 4 µg/mL | 1 µg/mL | 8 µg/mL | 32 µg/mL | 1 µg/mL |
| Lactococcus lactis IM1372 (strain group: starter cultures) | 0.5 µg/mL | 0.5 µg/mL | 0.25 µg/mL | 0.25 µg/mL | 1 µg/mL | 8 µg/mL | < 0.25 µg/mL | 8 µg/mL | 4 µg/mL | 4 µg/mL |
| Lactococcus lactis IM1324 (strain group: non-starter strains) | 1 µg/mL | 0.5 µg/mL | 1 µg/mL | 32 µg/mL | 4 µg/mL | > 256 µg/mL | 0.5 µg/mL | 16 µg/mL | 16 µg/mL | 8 µg/mL |
| Bifidobacterium adolescentis IM672 (strain group: human intestinal mucosa or faeces) | 1 µg/mL | 0.5 µg/mL | > 8 µg/mL | 2 µg/mL | 16 µg/mL | > 256 µg/mL | 2 µg/mL | 128 µg/mL | 128 µg/mL | 4 µg/mL |
| Lactobacillus acidophilus IM552 (strain group: probiotic strains) | 1 µg/mL | 1 µg/mL | 0.12 µg/mL | 1 µg/mL | 4 µg/mL | 4 µg/mL | 0.5 µg/mL | 4 µg/mL | 64 µg/mL | 4 µg/mL |

| Test System | minimum inhibitory concentration [1] | minimum inhibitory concentration [2] | minimum inhibitory concentration [3] | minimum inhibitory concentration [4] | minimum inhibitory concentration [5] | minimum inhibitory concentration [6] | minimum inhibitory concentration [7] | minimum inhibitory concentration [8] | minimum inhibitory concentration [9] | minimum inhibitory concentration [10] |
| --- | --- | --- | --- | --- | --- | --- | --- | --- | --- | --- |
| Streptococcus thermophilus IM1418 (strain group: starter cultures) | 0.063 µg/mL | < 0.03 µg/mL | < 0.016 µg/mL | 0.25 µg/mL | < 0.5 µg/mL | < 0.5 µg/mL | < 0.25 µg/mL | < 0.5 µg/mL | < 2 µg/mL | 2 µg/mL |
| Lactiplantibacillus plantarum IM1468 (strain group: starter cultures) | 0.5 µg/mL | 4 µg/mL | 0.5 µg/mL | 16 µg/mL | 8 µg/mL | 64 µg/mL | > 128 µg/mL | 8 µg/mL | 128 µg/mL | 8 µg/mL |
| Bifidobacterium adolescentis IM680 (strain group: human intestinal mucosa or faeces) | 0.063 µg/mL | 0.06 µg/mL | 0.12 µg/mL | 1 µg/mL | 64 µg/mL | 128 µg/mL | < 0.25 µg/mL | 64 µg/mL | 512 µg/mL | 2 µg/mL |
| Lacticaseibacillus paracasei IM1474 (strain group: starter cultures) | 4 µg/mL | 0.12 µg/mL | 0.12 µg/mL | 1 µg/mL | 2 µg/mL | 16 µg/mL | > 128 µg/mL | 4 µg/mL | 32 µg/mL | 4 µg/mL |
| Bifidobacterium adolescentis IM671 (strain group: human intestinal mucosa or faeces) | 0.125 µg/mL | 0.06 µg/mL | 0.12 µg/mL | 16 µg/mL | 128 µg/mL | 128 µg/mL | 0.5 µg/mL | 256 µg/mL | 512 µg/mL | 2 µg/mL |
| Lactobacillus gasseri IM852 (strain group: human milk or colostrum) | 1 µg/mL | 4 µg/mL | 0.12 µg/mL | 1 µg/mL | 2 µg/mL | 8 µg/mL | 1 µg/mL | 8 µg/mL | 256 µg/mL | 4 µg/mL |
| Bifidobacterium adolescentis IM667 (strain group: human intestinal mucosa or faeces) | 0.25 µg/mL | 0.25 µg/mL | 0.5 µg/mL | 0.5 µg/mL | 8 µg/mL | 64 µg/mL | 1 µg/mL | 32 µg/mL | 128 µg/mL | 2 µg/mL |
| Lactobacillus gasseri IM824 (strain group: human milk or colostrum) | 0.5 µg/mL | 8 µg/mL | 0.12 µg/mL | 2 µg/mL | 2 µg/mL | 8 µg/mL | 1 µg/mL | 8 µg/mL | 64 µg/mL | 4 µg/mL |
| Bifidobacterium adolescentis IM751 (strain group: human intestinal mucosa or faeces) | 8 µg/mL | 0.12 µg/mL | 0.25 µg/mL | 16 µg/mL | 128 µg/mL | 256 µg/mL | 0.5 µg/mL | 256 µg/mL | 1020 µg/mL | 2 µg/mL |
| Bifidobacterium adolescentis IM780 (strain group: human intestinal mucosa or faeces) | 0.125 µg/mL | 0.12 µg/mL | 0.25 µg/mL | 16 µg/mL | 256 µg/mL | 256 µg/mL | 0.5 µg/mL | 256 µg/mL | 512 µg/mL | 2 µg/mL |
| Bifidobacterium adolescentis IM788 (strain group: human intestinal mucosa or faeces) | 0.125 µg/mL | 0.12 µg/mL | 0.25 µg/mL | 16 µg/mL | 256 µg/mL | 256 µg/mL | 0.5 µg/mL | > 256 µg/mL | 1020 µg/mL | 2 µg/mL |
| Bifidobacterium longum IM682 (strain group: human intestinal mucosa or faeces) | < 0.032 µg/mL | 0.06 µg/mL | 0.12 µg/mL | 1 µg/mL | 16 µg/mL | 128 µg/mL | < 0.25 µg/mL | 32 µg/mL | 128 µg/mL | 2 µg/mL |
| Bifidobacterium adolescentis IM678 (strain group: human intestinal mucosa or faeces) | 0.125 µg/mL | 0.06 µg/mL | 0.12 µg/mL | 16 µg/mL | 32 µg/mL | 32 µg/mL | 0.5 µg/mL | 32 µg/mL | 256 µg/mL | 2 µg/mL |
| Lactobacillus delbrueckii subsp. bulgaricus IM1401 (strain group: starter cultures) | 0.125 µg/mL | 0.06 µg/mL | 0.03 µg/mL | 2 µg/mL | 2 µg/mL | 16 µg/mL | < 0.25 µg/mL | 8 µg/mL | 64 µg/mL | 4 µg/mL |
| Lactococcus lactis IM1381 (strain group: probiotic strains) | 0.25 µg/mL | 0.12 µg/mL | 0.25 µg/mL | 0.25 µg/mL | < 0.5 µg/mL | 8 µg/mL | 0.5 µg/mL | 1 µg/mL | 4 µg/mL | 4 µg/mL |
| Lactobacillus acidophilus IM808 (strain group: probiotic strains) | < 0.032 µg/mL | 1 µg/mL | 0.5 µg/mL | 0.5 µg/mL | < 0.5 µg/mL | < 0.5 µg/mL | 0.5 µg/mL | 2 µg/mL | 4 µg/mL | 4 µg/mL |
